Consider 21 variants from the RNAGym collection of RNA variant scans (doi:10.7554/elife.90254).

B1: OR4K15 (parent)
chain: GUUAACGGUCAUAGGCCAUGGAAACUAGGAGCACCAUUUCGCUGCCAGUGAAGAAAUGAACAAAGAAAAUCUGGGCCAGGCAGGCAUCAAAAGAAAUAGUCUUGCGCUCAACCAGAAAGUCUGUAAUCAUUUUAAGGGUA

The source gives no read counts; variants with many changes may rest on few reads.

The variants in this data set derive from B1. Briefly: self-cleavage, relative activity (ratio to wild type); higher = more cleavage; in vitro, sequencing; the parent is a self-cleaving ribozyme.
Turning to GUUAACGGUCAUGGGCCAUGGAGACUAGGGGCACCAUUUCGCUGCCUGUGAAGAAAUGAACAAAGAAAAUCUGGGCCAGGCAGGCAUCAAAAGAAAUAGUCUUGCGCUCAACCAGAAAGUCUGUAAUCAUUUUAAGGGUA [A13G A23G A30G A47U], the self-cleavage is 0.96. On to GUUAACGGUCAUGGGCCAUGGAAACUAGGAGCACCAUUUCGCUGCCAGUGAAGAAAUGGACAAAGAAAAUCUGGGCCAGGCAGGCAUCAAAAGAAAUAGUCUUGCGCUCAACCAGACAGUCUGUAAUCAUUUUAAGGGUA [A13G A59G A117C], for which the self-cleavage is 0.75.

For the variant GUUAACGGUCAUGGGCCAUGGAAACUAGGAGCACCUUUUCGCUGCCAGUGAAGAAAUGAACAAAGAAAGUCUGGGCCAGGCAGGCAUCAAAAGAAAUAGUCUUGCGCUCAACCAGAAAGUCUGUAAUCAUUUUAAGGGUA [A13G A36U A69G], the self-cleavage worked out at 0.78. GUUAACGGUCAUGGGCCAUGGAAACUAGGAGCACCAUUUCGCUGCCAGUGAAGAAAUGAACAAAGGAAAUCUGGGCCAGGCAGGCAUCAAAAGAAAUAGUCUUGCGCUCAACCAGAAAGUCUGUAAUCAUUUUAAGGGCA [A13G A66G U139C]: the self-cleavage was determined as 2.23. With GUUAACGGUCAUGGGCCAUGGAAACUAGGAGCACCAUUUCGCUGCCAGUGAAGGAAUGAACAAAGAAAAUCUGGGCCAGGCAGGCAUCAAAAGAAAUAGUCUUGCGCUCAACCAGAAGGUCUGUAAUCAUUUUAAGGGUA [A13G A54G A118G] the figure was 0.65; with GUUAACGGUCAUGGGCCAUGGAAGCUAGGAGCACCAUUUCGCUGCCAGUGAAGAAAUGAACAAAGAAAAUCUGGGCCAGGCAGGCAUCAAAAGAAAUAGUCUUGCGCGCAACCAGAAAGUCUGUAAUCAUUUCAAGGGUA [A13G A24G U108G U133C], 0.05.

In the case of GUUAACGGUCAUGGGCCAUGGAAACUAGGAGCACCAUUUCGCUGCCAGUGAGGAAAUGAACAAAGAAAAUCUGGGCCAGGCAGGCAUCAAAAGAAAUAGUCCUGCGCUCGACCAGAAAGUCUGUAAUCAUUUUAAGGGUA [A13G A52G U102C A110G], the self-cleavage is 0.18.

As for GUUAACGGUCAUGGGCCAUGGAAACUAGGAGCACCAUUUCGCUGCCAGUGAAGAAAUGAACAGAGAAAAUCUGGGCCAGGCAGGCAUCAAAAGAAAUAGUCCUGCGCUCAACCAGAAAGUCUGUAAUCAUUUUAAGGGUA [A13G A63G U102C], the self-cleavage was 0.8.

For the variant GUUAACGGUCAUGGGCCAUGGCAACUAGGAGCACCAUUCCGCUGCCAGUGAAGAAAUGAACAAAGAAAAUCUGGGCUAGGCAGGCAUCAAAAGAAAUAGUCUUGCGCUCUACCAGAAAGUCUGUAAUCGUUUUAAGGGUA [A13G A22C U39C C77U A110U A129G], the self-cleavage is 1.28. In the case of GUUAACGGUCAUGGGCCAUGGGAACUAGGAGCACCAUUUCGCUGCCAGUGGAGAAAUGAACAAAGAAAACCUGGGCCAGGCAGGCAUCAAAAGAAAUAGUCUUGCGCUCAACCAGAAAGUCUGUAAUCAUUUUAAGGGUA [A13G A22G A51G U70C], the self-cleavage is 0.79. In the case of GUUAACGGUCAUGGGCCAUGGAGACUAGGAGCACCAUUUCGCUGCCAGUGAAGAAAUGAACAAAGAAAAUCUGGGCCAGGCAGGCAUCAAAAGAAAUAGCCUUGCGCUCAACCAGAAAGUCUGUAAUCAUUUUAAGGGUA [A13G A23G U100C], the self-cleavage worked out at 1.29. With GUUAACGGUCAUGGGCCAUGGAAACUAGGAGCACCAUUUCGCUGCCAGUGAAGAAAUGAGCAAAGAAAAUCUGGGCCAGGCAGACAUCAAAAGAAAUAGUCUUGCGCUCAACCAGAAAGUCUGUAAUCAUUUUAAGGGUA [A13G A60G G84A] the figure was 1.07; with GUUAACGGUCAUGGGCCAUGGAAACUAGGAGCACCAUUUCGCUGCCAGUGAAGAAGCGAACAAAGAAAAUAUGGGCCAGGCAGGCAUCAAAAGAAAUAGUCUUGCGCUCAGCCAGAAAGUCUGUAAUCAUUUUAAGGGUA [A13G A56G U57C C71A A111G], 0.02; with GUUAACGGUCAUGGGCCAUGGAAACUAGGAGCACCAUUUCGCUGCCAGUGAAGAAAUGGACAAAGAGAAUCUGGGCCAGGCAGACAUCAAAAGAAAUAGUCUUGCGCUCAACCAGAAAGUCUGUAAUCAUUUUAAGGGUA [A13G A59G A67G G84A], 1.02. The figure for GUUAACGGUCAUGGGCCAUGGAAACUAGGAGCACCAUUUCGCUGCCAGUGAAGAAAUGAACAAUGAAAAUCUGGGCCAGGCAGGCGUCAAAAGAAACAGUCCUGCGCUCAACCAGAAAGUCUGUAAUCAUUUUAAGGGUA [A13G A64U A86G U97C U102C] is 1.4; for GUUAACGGUCAUGGGCCAUGGAAACUAGGAGCACCAUUUCGCUGCCAGUGAAGGAAUGAACAAAGAAAAUCUGGGCCAGGCAGGCAUCAAAGGAAAUAGUCUUGCGCUCAGCCAGAAAGUCUGUAACCAUUUUAAGGGUA [A13G A54G A92G A111G U127C] it is 0.04; for GUUAACGGUCAUGGGCCAUGGAAACUAGGGGCACCAUUUCGCUGCCAGUGAAGAAAUGAACAAAGAAAAUCUGGGCCAGGCAGGCAUCAAAAGAAAUAGCCUUGCGCUCAACCAAAAAGUCUGUAAUCAUUUUAAGGGUA [A13G A30G U100C G115A] it is 0.99. GUUAACGGUCAUGGGCCAUGGAAACUGGGAGCACCAUUUCGCUGCCAGUGAAGAAAUGAACAGAGAAAAUCUGGGCCAGGCAGGCAUCAAAAGAAAUAGUCUUGCGCUCAACCAGAAAGUCUGUAAUCAUUUUAAGGGUA [A13G A27G A63G]: the self-cleavage was 1.11. With GUUAACGGUCAUGGGCCAUGGUAACUAGGAGCACCAUUUCGCUGCCAGUGAAGAAAUGAACAAAGAAAAUCUGGGCCAGGCAGGCAUCAAAAGAAAUAGUCUUGCGCUCAACCUGAAAGUCUGUAAUCAUUUUAAGGGUA [A13G A22U A114U] the figure was 0.33; with GUUAACGGUCAUGGGCCAUGGAAACUAGGGGCACCAUUUCGCUGCCAGUGAAGAAAUGAACAAAGAAAAUCUGGGCCAGGCAGGCAUCAAAAGAAAUAGUCUUGCGCUCAACCAGAAAGUCCGUAAUCAUUUUAAGGGUA [A13G A30G U122C], 0.8. With GUUAACGGUCAUGGGCCAUGGAAGCUAGGAGCACCAUUUCGCUGCCUGUGAAGAAAUGAACGAAGAAAAUCUGGGCCAGGCAGGCAUCAAAAGAAAUAGUCUUGCGCUCAACCAGAAAGUCUGUAAUCAUUUUAAGGGUA [A13G A24G A47U A62G] the figure was 1.25.
